# Experimental data from PubChem BioAssay AID624173 (National Center for Advancing Translational Sciences (NCATS), 2012).
# Hit rate of the full screen: of about 410,000 compounds, about 490 (0.12%) were called active. The inconclusive results got no clear call from the source; some entries with a clear call stand among them for comparison. Calls follow the shape of the dose curve; as a rule, active = well fitted inhibition curve with a large enough effect; inconclusive = small, poorly fitted or top-dose-only effect; inactive = flat fitted curve, though single readings scatter. Potencies beside an inconclusive call are fits to weak or partial responses and may not hold up.
# Target: pyruvate kinase (Trypanosoma brucei) (UniProt Q57TT1)
# Test: qHTS of Trypanosoma Brucei Inhibitors; also: nearly all actives have a fitted effect of over 50% in size
# Conditions: TbPYK enzyme, Kinase-Glo Plus ATP luminescence, 45 min; series mostly up to 76.8 µM
# How it was run: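 Luminescence from Kinase-Glo Plus, added after a 45-minute room-temperature reaction, served as the end-point read-out. The enzyme and substrate were preincubated with compound before ADP (130 uM final) initiated turnover. Concentration-effect curves came from normalized qHTS data.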
# Potency is read from the fitted curve at half-maximal effect; tags tell the direction and shape of the fitted curve.
row,SMILES,Potency
1,Cc1ccsc1/C=C1\C(=O)NC(=S)N(C)C1=O,"inconclusive: 20 µM [inhibitor, partial curve, poor fit]"
2,O=C(/C=C/c1ccc(Br)o1)NCc1ccccc1,"inconclusive: 39.8 µM [inhibitor, single point]"
3,Fc1ccc(-c2n[nH]c(=S)n2-c2ccc3c(c2)OCCO3)cc1,"inconclusive: 6.31 µM [inhibitor, full curve, poor fit]"
4,Cn1c(=O)[nH]c(=O)c2c1nc(SCC(=O)O)n2Cc1ccccc1,"inconclusive: 25.1 µM [inhibitor, partial curve]"
5,O=C(NCc1ccco1)C(c1ccco1)N(CCc1ccccc1)C(=O)Cn1nnc2ccccc21 (stereo unspecified),"inconclusive: 31.6 µM [inhibitor, single point]"
6,COc1ccc(C(c2sc3nc(C)nn3c2O)N2CCc3ccccc3C2)cc1 (stereo unspecified),"inconclusive: 35.5 µM [inhibitor, partial curve, poor fit]"
7,CCN(CC)c1ccc(NC(=O)c2ccc3c(c2)OCO3)cc1,"inconclusive: 8.91 µM [inhibitor, partial curve]"
8,CC1(C)Cc2c(C#N)c(SCC(=O)c3ccccc3)nc(N3CCOCC3)c2CO1,"inconclusive: 28.2 µM [inhibitor, partial curve]"
9,CCCn1c(-c2ccc(F)cc2)n[nH]c1=S,"inconclusive: 5.62 µM [inhibitor, full curve, poor fit]"
10,CC(C)(C)NC(=O)c1ccc(NC(=O)C2COc3ccccc3O2)cc1 (stereo unspecified),"inconclusive: 35.5 µM [inhibitor, single point]"
11,O=C1N/C(=C/c2ccc(N3CCOCC3)o2)C(=O)N1c1cccc(Cl)c1,"inconclusive: 31.6 µM [inhibitor, partial curve]"
12,OCCN1CCN(C(=S)c2ccc(Cl)c(Cl)c2)CC1,"inconclusive: 31.6 µM [inhibitor, partial curve, poor fit]"
13,Fc1ccccc1-n1c(-c2ccc3ccccc3n2)n[nH]c1=S,"inconclusive: 12.6 µM [inhibitor, partial curve, poor fit]"
14,CC(=O)Nc1ccc(NC(=O)C(C)OC(=O)CNS(=O)(=O)c2ccc(Br)cc2Cl)cc1 (stereo unspecified),"inconclusive: 50.1 µM [inhibitor, single point]"
15,O=C(O)c1ccc(-c2ncc[nH]2)cc1,"inconclusive: 31.6 µM [inhibitor, partial curve, poor fit]"
16,Cc1ccc2nc(N(Cc3cccnc3)C(=O)C3CCCCC3)sc2c1,inactive
17,Cc1cc2c(=O)c(C(=O)c3ccncc3)cn(CC(=O)Nc3cccc(C)c3C)c2cc1C,inactive
18,CC(C)n1c(=S)[nH]c2cc(C(F)(F)F)ccc21,"inconclusive: 8.91 µM [inhibitor, partial curve]"
19,COc1ccc(-n2c(=O)c3c4c(sc3n3c(=S)[nH]nc23)CCC4)cc1,"inconclusive: 12.6 µM [inhibitor, partial curve, poor fit]"
20,CC1NC(=O)NC1CCCCCC(=O)NCCc1ccccc1 (stereo unspecified),inactive
21,COc1ccc(C(=O)NC(=S)NCCO)cc1Br,inactive
22,CC(C)(C)c1ccc(-c2nnc3sc(-c4ccccn4)nn23)cc1,"inconclusive: 12.6 µM [inhibitor, partial curve, poor fit]"

row,SMILES,Potency
1,CCOc1ccc(CCNC(=O)CCn2c(=O)c3cccn3c3cccnc32)cc1,inactive
2,S=c1[nH]c(-c2ccccc2)cn1/N=C/c1cccnc1,"inconclusive: 6.31 µM [inhibitor, full curve]"
3,Cc1ccc(-c2ccnc3nc(-n4cccc4)nn23)o1,"inconclusive: 35.5 µM [inhibitor, single point]"
4,C=CCn1c(C(c2ccccc2)c2ccccc2)n[nH]c1=S,"inconclusive: 5.62 µM [inhibitor, partial curve, poor fit]"
5,CN1C(=O)NC(=O)/C(=C\c2ccc([N+](=O)[O-])o2)C1=O,"inconclusive: 31.6 µM [inhibitor, partial curve]"
6,CC(=O)c1cccc(-n2c(=O)c3c4c(sc3n(CC(=O)c3ccc(Cl)cc3)c2=O)CN(C(C)=O)CC4)c1,inactive
7,CCOc1ccc(-n2c(SCc3ccc([N+](=O)[O-])cc3)nnc2-c2ccccc2)cc1,"inconclusive: 20 µM [inhibitor, partial curve, poor fit]"
8,Cc1ccc(-c2cc(-c3coc4ccccc4c3=O)c3c(n2)-c2ccccc2OC3)cc1,inactive
9,Cc1ccnc(NC(=O)CCCc2c[nH]c3ccccc23)c1,inactive
10,COc1cc2oc(=O)c(CC(=O)NCc3ccc(OC)c(OC)c3)c(C)c2cc1Cl,inactive
11,O=[N+]([O-])c1cccc(/C=N/Nc2nc(NCc3ccccc3)nc(N3CCOCC3)n2)c1O,"inconclusive: 31.6 µM [inhibitor, single point]"
12,CCN(CC)c1ccc2nc3ccc(N)cc3[n+](-c3ccccc3)c2c1,"inconclusive: 31.6 µM [inhibitor, partial curve, poor fit]"
13,O=[N+]([O-])c1cc(/C=N/n2c(-c3ccncc3)n[nH]c2=S)ccc1Cl,"inconclusive: 1 µM [inhibitor, full curve]"
14,S=c1[nH]nc(-c2ccccc2Cl)n1/N=C/C=C/c1ccco1,"inconclusive: 1.26 µM [inhibitor, full curve, poor fit]"
15,CNC(=O)c1ccc(NC(=O)c2nsc3ccccc23)cc1,"inconclusive: 39.8 µM [inhibitor, partial curve]"
16,Cc1ccc(N2CC(c3nnc(Cc4ccc(F)cc4Cl)o3)CC2=O)cc1 (stereo unspecified),"inconclusive: 31.6 µM [inhibitor, partial curve, poor fit]"
17,CCCCn1c(-c2csc3c2CCCC3)n[nH]c1=S,"inconclusive: 12.6 µM [inhibitor, partial curve, poor fit]"
18,CN(Cc1ccccc1)C(=O)c1[nH]cnc1C(=O)Nc1ccccc1F,inactive
19,CCCc1cc(=O)oc2cc(C)cc(OC(=O)c3ccco3)c12,"inconclusive: 35.5 µM [inhibitor, partial curve, poor fit]"
20,N#CC1C(=O)NC(=O)C(C#N)C12CCCc1sccc12 (stereo unspecified),inactive
21,Cc1nc(-c2ccccc2)sc1-c1n[nH]c(=S)n1C,"inconclusive: 8.91 µM [inhibitor, partial curve]"
22,Cc1cc(-c2n[nH]c(=S)n2/N=C/c2ccco2)n[nH]1,"inconclusive: 35.5 µM [inhibitor, partial curve, poor fit]"

row,SMILES,Potency
1,Cn1c(CSc2ncccn2)nnc1SCC(=O)N1CCCCC1,"inconclusive: 44.7 µM [inhibitor, single point]"
2,COc1ccc(-n2c(SC3CCOC3=O)nc3ccccc3c2=O)cc1OC (stereo unspecified),inactive
3,C/C(=N/NC(=O)c1cccs1)c1c(C)[nH]n(-c2nc3ccccc3s2)c1=O,"inconclusive: 31.6 µM [inhibitor, single point]"
4,CCOc1cccc(-c2cc(-c3n[nH]c(=S)n3CC)c3ccccc3n2)c1,"inconclusive: 1.58 µM [inhibitor, partial curve, poor fit]"
5,CCCCN(C(=O)C1CCCO1)c1c(N)n(CCC)c(=O)[nH]c1=O (stereo unspecified),inactive
6,C/C(=N\Nc1ccc(Cl)c(C(=O)O)c1)c1ccccn1,inactive
7,N#CC1=C2SCN(Cc3ccco3)CN2C(=O)CC1c1c(F)cccc1Cl (stereo unspecified),"inconclusive: 8.91 µM [inhibitor, partial curve, poor fit]"
8,COc1ccc(/C=N/n2c(-c3cc(C)[nH]n3)n[nH]c2=S)cc1OC,"inconclusive: 10 µM [inhibitor, partial curve]"
9,CCOC(=O)C1=C(Cc2ccc(Cl)cc2)C(=O)c2ccccc2C1=O,"inconclusive: 35.5 µM [inhibitor, partial curve]"
10,CCCCc1n[nH]c(=S)n1Cc1ccccc1,"inconclusive: 14.1 µM [inhibitor, partial curve, poor fit]"
11,Cc1ccc(-c2nc3ccc([N+](=O)[O-])cc3[nH]2)cc1,inactive
12,Cc1c(Cl)c(-c2n[nH]c(=S)n2Cc2ccco2)nn1C,"inconclusive: 2.24 µM [inhibitor, full curve, poor fit]"
13,S=c1[nH]nc(COc2ccc(Cl)cc2)o1,"inconclusive: 28.2 µM [inhibitor, single point]"
14,Cc1cc(NC(=O)CSc2nnc(-c3ccco3)n2C)no1,inactive
15,CCCc1cc(-c2n[nH]c(=S)n2Cc2ccccc2)cs1,"inconclusive: 20 µM [inhibitor, partial curve, poor fit]"
16,S=C(c1ccc(-c2ccc(Cl)c(Cl)c2)o1)N1CCOCC1,"inconclusive: 50.1 µM [inhibitor, single point]"
17,O=C(NC(=S)NNC(=O)[C@H]1C[C@@H]1c1ccccc1)c1cccc(F)c1,"inconclusive: 17.8 µM [inhibitor, partial curve, poor fit]"
18,O=C1C=CC(=O)N1CCCCCCCCCCN1C(=O)C=CC1=O,"inconclusive: 3.98 µM [inhibitor, full curve, poor fit]"
19,O=[N+]([O-])c1ccccc1/C=C/C=N/n1c(-c2ccccc2F)n[nH]c1=S,"inconclusive: 8.91 µM [inhibitor, partial curve, poor fit]"
20,Cc1ccc(CN2CCc3[nH]c(=O)[nH]c(=O)c3C2)cc1,"inconclusive: 3.98 µM [inhibitor, partial curve, poor fit]"
21,O=C(OCC(=O)N1N=C(c2ccc(Cl)cc2)CC1c1ccco1)c1cccnc1 (stereo unspecified),"inconclusive: 28.2 µM [inhibitor, single point]"
22,CCOc1cc(S(=O)(=O)n2cc(-c3ccc(F)cc3)c(N)n2)cc(OCC)c1OCC,"inconclusive: 5.01 µM [inhibitor, partial curve, poor fit]"
